The values that follow come from publication PMC3183054.

Amino acid sequences for entries named in this document (tags omitted).
UniProt Q93034: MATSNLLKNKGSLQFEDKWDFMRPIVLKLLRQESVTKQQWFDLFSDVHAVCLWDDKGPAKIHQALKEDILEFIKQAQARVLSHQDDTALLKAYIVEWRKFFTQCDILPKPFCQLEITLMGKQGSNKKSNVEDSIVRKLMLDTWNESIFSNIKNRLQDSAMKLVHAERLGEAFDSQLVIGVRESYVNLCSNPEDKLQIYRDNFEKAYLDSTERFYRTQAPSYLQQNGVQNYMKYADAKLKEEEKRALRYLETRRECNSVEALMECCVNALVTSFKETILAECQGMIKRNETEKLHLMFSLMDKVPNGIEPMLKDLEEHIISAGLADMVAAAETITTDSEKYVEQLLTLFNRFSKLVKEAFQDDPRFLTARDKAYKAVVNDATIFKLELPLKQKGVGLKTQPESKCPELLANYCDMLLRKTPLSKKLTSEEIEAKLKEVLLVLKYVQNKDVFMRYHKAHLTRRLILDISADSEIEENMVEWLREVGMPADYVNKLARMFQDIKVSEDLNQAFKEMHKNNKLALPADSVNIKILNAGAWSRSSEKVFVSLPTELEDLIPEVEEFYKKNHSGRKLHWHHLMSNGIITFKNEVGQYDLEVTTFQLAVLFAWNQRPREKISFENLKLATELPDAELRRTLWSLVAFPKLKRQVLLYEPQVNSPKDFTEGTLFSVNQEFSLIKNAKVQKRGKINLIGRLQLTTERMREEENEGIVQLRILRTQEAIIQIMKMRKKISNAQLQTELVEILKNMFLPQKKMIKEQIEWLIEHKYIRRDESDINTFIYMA
UniProt Q9UBF6: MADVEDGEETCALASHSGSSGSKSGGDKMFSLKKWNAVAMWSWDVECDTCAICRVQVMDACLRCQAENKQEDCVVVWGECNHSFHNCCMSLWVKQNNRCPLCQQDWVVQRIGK
UniProt Q15370: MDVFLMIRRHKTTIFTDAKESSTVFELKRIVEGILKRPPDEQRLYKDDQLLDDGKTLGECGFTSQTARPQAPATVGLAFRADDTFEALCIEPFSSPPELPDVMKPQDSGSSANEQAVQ

Residue numbers refer to the chain shown, from its start. Results are given in words; binding and its absence hold for the method and conditions named. In cells and extracts the contact can be indirect. Some entries that bind do so weakly or less than the wild type. Where a sequence is shown, tags or fusion partners need not be part of it.

Experiment [1] has as its target T1, FLAG-SOCS2 with a point mutation in the SOCS-box at L163P (UniProt O35717).
T1 sequence: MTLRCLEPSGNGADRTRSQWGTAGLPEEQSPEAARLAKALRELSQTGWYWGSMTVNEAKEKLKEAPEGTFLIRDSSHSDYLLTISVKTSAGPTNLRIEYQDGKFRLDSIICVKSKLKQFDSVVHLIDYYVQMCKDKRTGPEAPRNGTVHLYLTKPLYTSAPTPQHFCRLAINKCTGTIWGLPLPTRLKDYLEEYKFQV
The experiment in a line: co-IP; HEK293T transfected with Elongin B, Elongin C, Myc-Cullin5 and FLAG-SOCS2 wild type or mutant; FLAG-SOCS2 precipitated with FLAG-conjugated agarose beads 1 h at 4 °C from lysate (50 mM Tris HCl pH 7.5, 150 mM NaCl, 5 mM EDTA, 0.5% Igepal-40); Western blot of the precipitates. A general note: In western blotting, separated proteins are transferred to a membrane and probed.

Experiment [2] concerns the target T2, FLAG-SOCS2 with a point mutation in the SOCS-box at C167F (UniProt O35717).
T2 sequence: T1 sequence with P163L, C167F
The experiment is described as above.

For experiment [3], the target named is T3, FLAG-SOCS2 lacking the 39 amino acid C-terminus corresponding to the SOCS-box (UniProt O35717).
T3 sequence: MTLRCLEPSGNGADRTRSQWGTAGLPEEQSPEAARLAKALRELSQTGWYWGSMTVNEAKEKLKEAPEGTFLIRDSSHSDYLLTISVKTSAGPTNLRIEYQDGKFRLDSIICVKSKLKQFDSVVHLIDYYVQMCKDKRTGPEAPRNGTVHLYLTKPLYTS
The experiment is described as above.

Experiment [4] addresses T4, FLAG-SOCS2 (suppressor of cytokine signalling 2, wild type) (UniProt O35717).
T4 sequence: T1 sequence with P163L
The description is as above.

Experiment [5] addresses T5, FLAG-SOCS2 lacking the 37 amino acid N-terminus (UniProt O35717).
T5 sequence: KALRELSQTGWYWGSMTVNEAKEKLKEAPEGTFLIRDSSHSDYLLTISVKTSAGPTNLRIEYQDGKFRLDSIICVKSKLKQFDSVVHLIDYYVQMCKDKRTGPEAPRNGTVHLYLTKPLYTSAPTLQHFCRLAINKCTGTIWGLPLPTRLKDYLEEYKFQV
The description is as above.

Experiment [6] addresses T6, FLAG-SOCS2 with a point mutation in the SH2-domain at R73E (UniProt O35717).
T6 sequence: T1 sequence with R73E, P163L
The experiment is described as above.

Experiment [7] concerns the target T3, FLAG-SOCS2 lacking the 39 amino acid C-terminus corresponding to the SOCS-box. The experiment is described as follows: co-IP; HEK293T transfected with Elongin B/C, FLAG-SOCS2 or a mutant and Myc-GHR; cells starved and treated with GH for 0 or 10 minutes before lysis; immunoprecipitation as in the methods, GHR detected with anti-Myc antibody.
The target of experiment [8] is T4, FLAG-SOCS2 (suppressor of cytokine signalling 2, wild type). The experiment is described as above.
Experiment [9] concerns the target T6, FLAG-SOCS2 with a point mutation in the SH2-domain at R73E. Described as above.

Myc-Cullin5 (from UniProt Q93034 1-780): the binding entry in experiment [1] is recorded as “no binding”; in experiment [2], “no binding”; in experiment [3] it was “no binding”; in [4] it was “binds”; in experiment [5], “binds”; in experiment [6], “binds”.

“Ring-box protein 2 (Rbx2) (from UniProt Q9UBF6 1-113)”: the binding entry is listed as “no binding” in [1]; “no binding” in [2]; “no binding” in [3]; “binds” in experiment [4]; “binds” in experiment [5]; “binds” in [6].

As for Elongin B (from UniProt Q15370 1-118), the binding entry in [1] is “no binding”; in experiment [2], “no binding”; in [3], “no binding”; in [4], “binds”; in experiment [5] it was “binds”; in experiment [6], “binds”.

B1: Myc-Growth Hormone Receptor (receptor, UniProt P16310 19-638)
chain: FPGSGATPATLGKASPVLQRINPSLRESSSGKPRFTKCRSPELETFSCYWTEGDDHNLKVPGSIQLYYARRIAHEWTPEWKECPDYVSAGANSCYFNSSYTSIWIPYCIKLTTNGDLLDEKCFTVDEIVQPDPPIGLNWTLLNISLPGIRGDIQVSWQPPPSADVLKGWIILEYEIQYKEVNETKWKTMSPIWSTSVPLYSLRLDKEHEVRVRSRQRSFEKYSEFSEVLRVTFPQMDTLAACEEDFRFPWFLIIIFGIFGVAVMLFVVIFSKQQRIKMLILPPVPVPKIKGIDPDLLKEGKLEEVNTILGIHDNYKPDFYNDDSWVEFIELDIDDADEKTEESDTDRLLSDDQEKSAGILGAKDDDSGRTSCYDPDILDTDFHTSDMCDGTSEFAQPQKLKAEADLLCLDQKNLKNSPYDASLGSLHPSITLTMEDKPQPLLGSETESTHQLPSTPMSSPVSLANIDFYAQVSDITPAGGVVLSPGQKIKAGLAQGNTQLEVAAPCQENYSMNSAYFCESDAKKCIAAAPHMEATTCVKPSFNQEDIYITTESLTTTARMSETADTAPDAEPVPDYTTVHTVKSPRGLILNATALPLPDKKKFLSSCGYVSTDQLNKIMQ
B1: the figures for the binding entry in experiment [7], in experiment [8] and in [9] were “binds”, “binds” and “binds weakly”, respectively.
